# Measurements reported in patent US20200199241A1 (Chugai, published 2020).
# B1: VH3-IgG1-F648/L(WT)-CK (antibody)
# heavy: QVQLQESGPGLVKPSETLSLTCAVSGHSISHDHAWSWVRQPPGEGLEWIGFISYSGITNYNPSLQGRVTISRDNSKNTLYLQMNSLRAEDTAVYYCARSLARTTAMDYWGEGTLVTVSS[here human IgG1 constant region with P238D (EU numbers) without letters]
# light: DIQMTQSPSSLSASVGDRVTITCRASQDISSYLNWYQQKPGKAPKLLIYYTSRLHSGVPSRFSGSGSGTDFTFTISSLQPEDIATYYCQQGNTLPYTFGQGTKVEIKRTVAAPSVFIFPPSDEQLKSGTASVVCLLNNFYPREAKVQWKVDNALQSGNSQESVTEQDSKDSTYSLSSTLTLSKADYEKHKVYACEVTHQGLSSPVTKSFNRGEC
# notes: P238D in VH3-IgG1; copies: 2 + 2
# B2: antibody with VH3-IgG1-F760 heavy chain and L(WT)-CK light chain (antibody)
# heavy: QVQLQESGPGLVKPSETLSLTCAVSGHSISHDHAWSWVRQPPGEGLEWIGFISYSGITNYNPSLQGRVTISRDNSKNTLYLQMNSLRAEDTAVYYCARSLARTTAMDYWGEGTLVTVSS[here human IgG1 constant region with L235R S239K (EU numbers) without letters]
# light: B1 light
# notes: L235R/S239K; copies: 2 + 2
# Assays:
# human FcγRIIa(R) = target: T1, human FcγRIIa(R) (human, UniProt P12318 36-217); assay: SPR, pH 7.4, antibody captured by Protein L
# T1 construct: also called FcgRIIaR; hFcgRIIa(R)
# T1 chain: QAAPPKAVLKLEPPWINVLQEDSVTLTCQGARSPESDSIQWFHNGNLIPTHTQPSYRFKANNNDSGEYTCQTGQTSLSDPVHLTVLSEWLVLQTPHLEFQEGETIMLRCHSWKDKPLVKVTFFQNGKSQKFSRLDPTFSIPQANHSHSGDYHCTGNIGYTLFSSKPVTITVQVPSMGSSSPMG
# mouse FcγRIV = target: T2, mouse FcγRIV (mouse, UniProt A0A0B4J1G0 21-203); assay: SPR, antibody captured by Protein L, mouse FcγR as analyte, pH 7.4, 25 C
# T2 construct: bought; also called mFcgRIV; mFcgR IV; the vendor's purification tag not given
# T2 sequence: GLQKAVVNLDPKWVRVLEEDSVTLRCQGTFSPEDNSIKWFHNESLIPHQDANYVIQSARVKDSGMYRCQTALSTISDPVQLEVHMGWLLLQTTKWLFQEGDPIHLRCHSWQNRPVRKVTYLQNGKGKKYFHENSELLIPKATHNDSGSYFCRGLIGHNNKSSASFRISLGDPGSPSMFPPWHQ
# mouse FcγRIIb = target: T3, mouse FcγRIIb (mouse, UniProt P08101 30-207, limits assumed); assay: as above
# T3 construct: bought; also called mFcgRIIb; mFcgR IIb
# T3 sequence (looked up): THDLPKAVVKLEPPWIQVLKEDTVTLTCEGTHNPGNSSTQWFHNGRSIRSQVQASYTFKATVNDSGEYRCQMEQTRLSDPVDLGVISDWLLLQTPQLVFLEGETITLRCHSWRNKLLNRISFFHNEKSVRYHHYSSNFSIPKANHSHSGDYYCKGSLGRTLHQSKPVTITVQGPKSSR
# mouse FcγRIII = target: T4, mouse FcγRIII (mouse, UniProt P08508 31-215); assay: as above
# T4 construct: bought; also called mFcgRIII; mFcgR III
# T4 sequence (looked up): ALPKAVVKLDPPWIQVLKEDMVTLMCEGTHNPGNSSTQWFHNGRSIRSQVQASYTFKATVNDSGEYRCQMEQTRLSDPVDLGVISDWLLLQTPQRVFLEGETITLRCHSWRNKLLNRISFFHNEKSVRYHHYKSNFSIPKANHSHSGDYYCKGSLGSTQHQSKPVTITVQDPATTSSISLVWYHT
# mouse FcγRI = target: T5, mouse FcγRI (mouse, UniProt P26151 25-297); assay: as above
# T5 construct: bought; also called mFcgRI; mFcgR 1
# T5 sequence (looked up): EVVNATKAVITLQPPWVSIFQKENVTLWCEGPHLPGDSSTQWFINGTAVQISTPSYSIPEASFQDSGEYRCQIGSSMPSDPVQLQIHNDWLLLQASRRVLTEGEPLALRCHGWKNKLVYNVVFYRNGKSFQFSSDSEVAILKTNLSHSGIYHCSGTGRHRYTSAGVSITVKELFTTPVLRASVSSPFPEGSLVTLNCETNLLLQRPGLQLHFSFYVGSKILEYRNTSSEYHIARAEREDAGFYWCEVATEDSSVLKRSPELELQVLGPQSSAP
# [1] = target: T6, human FcRn (soluble human FcRn complexed with β2-microglobulin) (human, UniProt P61769 part only, limits assumed); assay: SPR, antibody captured by Protein L, human FcRn as analyte, pH 7.0, 25 C
# T6 construct: also called hFcRn
Binder,binding amount (human FcγRIIa(R)) [RU],BINDING AMOUNT (RU) (mouse FcγRIV),BINDING AMOUNT (RU) (mouse FcγRIIb),BINDING AMOUNT (RU) (mouse FcγRIII),BINDING AMOUNT (RU) (mouse FcγRI),binding result [1]
B1,12.2,–,–,–,–,–
B2,–,8.1,-2.2,-15.1,-1.9,no binding
